Some of the results follow.
test system: HepG2; assay: cytotoxicity call (relative viability < 0.9); conditions: 10 µM

SMILES | cytotoxicity call
C[C@H]1CN([C@@H](C)CO)C(=O)c2cc(NS(=O)(=O)c3cn(C)cn3)ccc2O[C@H]1CN(C)CC1CCCCC1 | inactive
Cc1cc(C(C)(C)C)c(O)c(C)c1CC1=NCCN1.Cl | inactive
CO[C@@H]1CN(C)C(=O)c2cc(NC(=O)Nc3ccc(Cl)cc3)ccc2OC[C@@H](C)N(C(=O)Nc2c(C)noc2C)C[C@H]1C | inactive
C[C@@H]1CN([C@@H](C)CO)C(=O)Cc2cc(NS(=O)(=O)c3ccc(F)cc3)ccc2O[C@H]1CN(C)S(=O)(=O)c1cn(C)cn1 | inactive
CCCNC(=O)N(C)C[C@H]1Oc2cc(C#Cc3cccc(F)c3)ccc2S(=O)(=O)N([C@@H](C)CO)C[C@H]1C | inactive
Cc1noc(C)c1S(=O)(=O)Nc1ccc2c(c1)C(=O)N([C@H](C)CO)C[C@H](C)[C@@H](CN(C)Cc1ccccc1)OCCCC[C@H](C)O2 | inactive
CCCNC(=O)N1C[C@H](C)[C@H](OC)CN(C)C(=O)c2ccc(NS(=O)(=O)CC(F)(F)F)cc2OC[C@@H]1C | inactive
COc1ccc(NC(=O)Nc2ccc3c(c2)C(=O)N([C@@H](C)CO)C[C@H](C)[C@@H](CN(C)Cc2ccccc2)OCCCC[C@@H](C)O3)cc1 | inactive
C[C@H](CO)N1C[C@H](C)[C@@H](CN(C)Cc2ccc(Oc3ccccc3)cc2)Oc2c(NC(=O)Nc3ccc(C(F)(F)F)cc3)cccc2C1=O | inactive
C[C@@H]1CCCCO[C@@H](CN(C)Cc2ccc(Cl)c(Cl)c2)[C@@H](C)CN([C@@H](C)CO)C(=O)c2cc(NC(=O)c3ccccc3)ccc2O1 | inactive
COc1ccc(S(=O)(=O)N(C)C[C@@H]2Oc3c(NC(=O)c4ccncc4)cccc3C(=O)N([C@H](C)CO)C[C@@H]2C)cc1 | inactive
O=c1nc[nH]c2ccccc12 | inactive
C[C@@H]1CN([C@H](C)CO)C(=O)Cc2cc(NC(=O)CCN3CCOCC3)ccc2O[C@@H]1CN(C)Cc1ccc(C(=O)O)cc1 | inactive
Cc1noc(C)c1NC(=O)Nc1ccc2c(c1)C(=O)N([C@@H](C)CO)C[C@@H](C)[C@H](CN(C)S(=O)(=O)c1ccc(F)cc1)OCCCC[C@@H](C)O2 | inactive
C[C@H](CO)N1C[C@H](C)[C@H](CN(C)Cc2ccc(Oc3ccccc3)cc2)Oc2c(NC(=O)C3CCOCC3)cccc2C1=O | inactive
COc1ccc(CN(C)C[C@H]2Oc3ccc(NC(=O)CCCCCC(=O)Nc4ccccc4N)cc3CC(=O)N([C@@H](C)CO)C[C@H]2C)cc1 | active
COc1ccc(CN(C)C[C@H]2OCCCC[C@H](C)Oc3ccc(NS(=O)(=O)c4ccc(F)cc4)cc3C(=O)N([C@@H](C)CO)C[C@H]2C)cc1 | active
N=C(N)Nc1nc2ccccc2[nH]1 | inactive
Cc1ccc(S(=O)(=O)N(C)C[C@H]2Oc3ccc(NS(=O)(=O)c4cn(C)cn4)cc3C(=O)N([C@H](C)CO)C[C@H]2C)cc1 | inactive
C[C@H](CO)N1C[C@H](C)[C@H](CN(C)S(=O)(=O)c2ccc(F)cc2)Oc2cc(Br)ccc2S1(=O)=O | inactive
C[C@@H]1CN([C@@H](C)CO)C(=O)c2cccc(NC(=O)Nc3ccc(C(F)(F)F)cc3)c2O[C@@H]1CN(C)S(=O)(=O)c1ccc(Cl)cc1 | inactive
C[C@H]1CN([C@@H](C)CO)C(=O)c2cccc(NC(=O)c3nc4ccccc4s3)c2O[C@H]1CN(C)CC1CCCCC1 | inactive
O=C(C[C@@H]1C=C[C@@H](NC(=O)CN2CCOCC2)[C@H](CO)O1)NC1CCCCC1 | inactive
C[C@H]1CN([C@@H](C)CO)C(=O)c2cc(NC(=O)c3ccncc3)ccc2O[C@H]1CN(C)Cc1ccc(C(=O)O)cc1 | inactive
CN(C)C(=N)N=C(N)N | inactive
C[C@H]1CN([C@@H](C)CO)S(=O)(=O)c2ccc(-c3ccc(F)cc3)cc2O[C@H]1CN(C)S(C)(=O)=O | inactive
C[C@H](CO)N1C[C@H](C)[C@@H](CN(C)C(=O)CN2CCOCC2)Oc2ncc(-c3cncnc3)cc2C1=O | inactive
C[C@H](CO)N1C[C@H](C)[C@@H](CN(C)C(=O)Cc2ccccc2)OCCCC[C@H](C)Oc2ccc(NC(=O)Nc3ccc4c(c3)OCO4)cc2C1=O | inactive
COc1ccc(NC(=O)Nc2ccc3c(c2)CC(=O)N([C@H](C)CO)C[C@H](C)[C@@H](CN(C)Cc2ccc(C(F)(F)F)cc2)O3)cc1 | inactive

test system: S. aureus RN4220; assay: growth inhibition call (relative growth <= 0.2); conditions: 50 µM

SMILES | growth inhibition call
NCCCC[C@H](N)C(=O)O | inactive
Cc1ccc(S(=O)(=O)Nc2ccc3c(c2)C(=O)N([C@H](C)CO)C[C@H](C)[C@H](CN(C)Cc2ccc(C(F)(F)F)cc2)OCCCC[C@@H](C)O3)cc1 | inactive
C[C@@H]1CN([C@@H](C)CO)C(=O)c2cccc(NC(=O)C3CCOCC3)c2O[C@H]1CN(C)Cc1ccc(-c2ccccc2)cc1 | inactive
Cc1cccc(NC(=O)Nc2ccc3c(c2)C(=O)N(C)[C@H]2CC[C@H](CC(=O)NCc4ccccc4Cl)O[C@@H]2CO3)c1 | inactive
C[C@H](CO)N1C[C@H](C)[C@@H](CN(C)Cc2ccc(Cl)c(Cl)c2)Oc2c(NC(=O)C3CCCCC3)cccc2C1=O | inactive
C[C@@H]1CN([C@@H](C)CO)C(=O)Cc2cc(NC(=O)Nc3ccccc3)ccc2O[C@@H]1CN(C)S(C)(=O)=O | inactive
C[C@@H]1CN([C@H](C)CO)C(=O)c2cc(NC(=O)Cc3ccccc3)ccc2O[C@@H](C)CCCCO[C@H]1CN(C)C(=O)Cc1ccccc1 | inactive
C[C@@H]1CN([C@H](C)CO)C(=O)Cc2cc(NC(=O)Nc3cccc4ccccc34)ccc2O[C@@H]1CN(C)S(=O)(=O)c1cccs1 | inactive
C[C@H]1CN([C@@H](C)CO)C(=O)c2cccc(NC(=O)c3ccc(-c4nccs4)cc3)c2O[C@@H]1CN(C)Cc1ccc(Oc2ccccc2)cc1 | inactive
C[C@H]1CCCCO[C@H](CN(C)S(=O)(=O)c2ccccc2)[C@@H](C)CN([C@@H](C)CO)C(=O)c2cc(NC(=O)CCC(F)(F)F)ccc2O1 | inactive
Cc1cc(C(=O)Nc2cccc3c2O[C@H](CN(C)S(=O)(=O)c2c(C)noc2C)[C@H](C)CN([C@H](C)CO)C3=O)n(C)n1 | inactive
C[C@H]1CN([C@@H](C)CO)C(=O)c2cc(NS(=O)(=O)c3cn(C)cn3)ccc2O[C@H]1CN(C)CC1CCCCC1 | inactive
Cc1cc(C(C)(C)C)c(O)c(C)c1CC1=NCCN1.Cl | inactive
CO[C@@H]1CN(C)C(=O)c2cc(NC(=O)Nc3ccc(Cl)cc3)ccc2OC[C@@H](C)N(C(=O)Nc2c(C)noc2C)C[C@H]1C | inactive
C[C@@H]1CN([C@@H](C)CO)C(=O)Cc2cc(NS(=O)(=O)c3ccc(F)cc3)ccc2O[C@H]1CN(C)S(=O)(=O)c1cn(C)cn1 | inactive
CCCNC(=O)N(C)C[C@H]1Oc2cc(C#Cc3cccc(F)c3)ccc2S(=O)(=O)N([C@@H](C)CO)C[C@H]1C | inactive
Cc1noc(C)c1S(=O)(=O)Nc1ccc2c(c1)C(=O)N([C@H](C)CO)C[C@H](C)[C@@H](CN(C)Cc1ccccc1)OCCCC[C@H](C)O2 | inactive
CCCNC(=O)N1C[C@H](C)[C@H](OC)CN(C)C(=O)c2ccc(NS(=O)(=O)CC(F)(F)F)cc2OC[C@@H]1C | inactive

SMILES | growth inhibition call
COc1ccc(NC(=O)Nc2ccc3c(c2)C(=O)N([C@@H](C)CO)C[C@H](C)[C@@H](CN(C)Cc2ccccc2)OCCCC[C@@H](C)O3)cc1 | inactive
C[C@H](CO)N1C[C@H](C)[C@@H](CN(C)Cc2ccc(Oc3ccccc3)cc2)Oc2c(NC(=O)Nc3ccc(C(F)(F)F)cc3)cccc2C1=O | inactive
C[C@@H]1CCCCO[C@@H](CN(C)Cc2ccc(Cl)c(Cl)c2)[C@@H](C)CN([C@@H](C)CO)C(=O)c2cc(NC(=O)c3ccccc3)ccc2O1 | inactive
COc1ccc(S(=O)(=O)N(C)C[C@@H]2Oc3c(NC(=O)c4ccncc4)cccc3C(=O)N([C@H](C)CO)C[C@@H]2C)cc1 | inactive
O=c1nc[nH]c2ccccc12 | inactive
C[C@@H]1CN([C@H](C)CO)C(=O)Cc2cc(NC(=O)CCN3CCOCC3)ccc2O[C@@H]1CN(C)Cc1ccc(C(=O)O)cc1 | inactive
Cc1noc(C)c1NC(=O)Nc1ccc2c(c1)C(=O)N([C@@H](C)CO)C[C@@H](C)[C@H](CN(C)S(=O)(=O)c1ccc(F)cc1)OCCCC[C@@H](C)O2 | inactive
C[C@H](CO)N1C[C@H](C)[C@H](CN(C)Cc2ccc(Oc3ccccc3)cc2)Oc2c(NC(=O)C3CCOCC3)cccc2C1=O | inactive
COc1ccc(CN(C)C[C@H]2Oc3ccc(NC(=O)CCCCCC(=O)Nc4ccccc4N)cc3CC(=O)N([C@@H](C)CO)C[C@H]2C)cc1 | inactive
COc1ccc(CN(C)C[C@H]2OCCCC[C@H](C)Oc3ccc(NS(=O)(=O)c4ccc(F)cc4)cc3C(=O)N([C@@H](C)CO)C[C@H]2C)cc1 | inactive
N=C(N)Nc1nc2ccccc2[nH]1 | inactive
Cc1ccc(S(=O)(=O)N(C)C[C@H]2Oc3ccc(NS(=O)(=O)c4cn(C)cn4)cc3C(=O)N([C@H](C)CO)C[C@H]2C)cc1 | inactive
C[C@H](CO)N1C[C@H](C)[C@H](CN(C)S(=O)(=O)c2ccc(F)cc2)Oc2cc(Br)ccc2S1(=O)=O | inactive
C[C@@H]1CN([C@@H](C)CO)C(=O)c2cccc(NC(=O)Nc3ccc(C(F)(F)F)cc3)c2O[C@@H]1CN(C)S(=O)(=O)c1ccc(Cl)cc1 | inactive
C[C@H]1CN([C@@H](C)CO)C(=O)c2cccc(NC(=O)c3nc4ccccc4s3)c2O[C@H]1CN(C)CC1CCCCC1 | inactive
O=C(C[C@@H]1C=C[C@@H](NC(=O)CN2CCOCC2)[C@H](CO)O1)NC1CCCCC1 | inactive
C[C@H]1CN([C@@H](C)CO)C(=O)c2cc(NC(=O)c3ccncc3)ccc2O[C@H]1CN(C)Cc1ccc(C(=O)O)cc1 | inactive
